# Measurements as given in PubChem BioAssay AID2147 (National Center for Advancing Translational Sciences (NCATS), 2009).
# About 3,600 (1.6%) of roughly 230,000 compounds were called active. The shares of active, inactive and inconclusive entries below differ from those in the screen. The call rests on the fitted dose curve; in most records, active means well fitted inhibition curve with a large enough effect (not every such curve was filed as active); inconclusive means small, poorly fitted or top-dose-only effect, or another doubt; inactive means no such curve, though single readings can be large or run the other way. Potencies of inconclusive entries are doubtful fits and often do not repeat.
# Molecular target: Lysine-specific demethylase 4E (Homo sapiens) (UniProt B2RXH2)
# Experiment: qHTS Assay for Inhibitors of Human Jumonji Domain Containing 2E (JMJD2E)
# Settings: JMJD2E catalytic domain, FDH-coupled NADH fluorescence (FDH is formaldehyde dehydrogenase); series mostly up to 57.1 µM; activity change, negative = inhibition: at the top concentration
# Further: nearly all actives have a fitted effect of over 50% in size.
# Potency means the concentration at half of the fitted maximal effect; tags describe the fitted curve by direction and shape.
# 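Wherever activity change, negative = inhibition is given: 0% = wells with enzyme and -100% = buffer wells without enzyme.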
# Sequence of UniProt B2RXH2 (B2RXH2 whole entry, looked up, the tested form may be a part): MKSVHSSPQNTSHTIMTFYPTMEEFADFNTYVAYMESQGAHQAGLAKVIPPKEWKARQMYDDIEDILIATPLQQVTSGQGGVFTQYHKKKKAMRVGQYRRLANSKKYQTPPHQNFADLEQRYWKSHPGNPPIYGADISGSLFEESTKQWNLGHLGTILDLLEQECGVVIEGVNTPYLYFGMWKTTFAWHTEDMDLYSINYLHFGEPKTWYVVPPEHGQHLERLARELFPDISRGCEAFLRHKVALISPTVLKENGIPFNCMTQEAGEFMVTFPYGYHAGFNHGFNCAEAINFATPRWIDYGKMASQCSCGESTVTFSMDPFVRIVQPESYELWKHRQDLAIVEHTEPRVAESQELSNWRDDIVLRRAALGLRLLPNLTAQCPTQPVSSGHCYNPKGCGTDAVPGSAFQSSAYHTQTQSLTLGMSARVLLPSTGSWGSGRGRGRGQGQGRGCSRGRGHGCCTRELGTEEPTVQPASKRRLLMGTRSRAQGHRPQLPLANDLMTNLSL
SMILES,Potency,"activity change, negative = inhibition"
O=C(CCCN1C(=O)c2cccc3cccc(c23)C1=O)N1CCc2ccccc2C1,"inconclusive: 35.5 µM [inhibitor, single point]",
CCNc1ccc(C(=O)O)cc1N,"inconclusive: 35.5 µM [inhibitor, single point]",
Cc1ccc(-c2nn3c(C)nnc3s2)cc1NC(=O)c1ccc(OC(C)C)cc1,,inactive: 7.58%
S=c1[nH]nc(COc2ccccc2)n1/N=C/c1ccncc1,,inactive: -23.2%
CN1C(C(=O)NCc2ccc(OC(F)(F)F)cc2)CC2Cn3c(nc4cc(Cl)c(Cl)cc43)C21 (configuration not stated),,inactive: -12.7%
CC(C)NC(=S)N1CCN(Cc2ccc3c(c2)OCO3)CC1,,inactive: -0.479%
Cc1ccc(OCc2nnc(SCC(=O)N3CCOCC3)n2C)cc1,,inactive: -1.92%
O=c1cc(-c2cccc3ccccc23)[nH][nH]1,"inconclusive: 1.26 µM [inhibitor, partial curve]",
CN(Cc1ccccc1)C(=O)COC(=O)c1cc(NS(=O)(=O)c2cccs2)ccc1O,"inconclusive: 31.6 µM [inhibitor, single point]",
O=C(CCn1c(=O)[nH]c2ccsc2c1=O)Nc1ccc(F)c(F)c1,,inactive: 6.87%
Cc1ccc(CN2CCN(/N=C\C=C\c3ccccc3)CC2)cc1,,inactive: 4.63%
Cc1cc(C(=O)OCC(=O)c2ccc(Cl)c([N+](=O)[O-])c2)c2cccc(C)c2n1,,inactive: -19.2%
CCN(CC)CCCN(Cc1cc2ccc(C)c(C)c2[nH]c1=O)C(=O)NC1CCCCC1,"inconclusive: 39.8 µM [inhibitor, single point]",
O=C(CSc1nnc(-c2ccco2)n1-c1ccccc1)N1CCN(C(=O)c2ccco2)CC1,,inactive: -2.11%
CCN(CC)C(=O)CC(c1ccc2c(c1)OCO2)c1c(OC)cc(OC)c2c(-c3ccccc3)cc(=O)oc12 (configuration not stated),"inconclusive: 35.5 µM [inhibitor, single point]",
COc1ccc(-n2ncc3c(=O)n(CC(=O)Nc4ccc(S(=O)(=O)N5CCOCC5)cc4)cnc32)cc1,"inconclusive: 28.2 µM [inhibitor, partial curve]",
O=C(Cc1ccc(Cl)c(Cl)c1)OCCN1CCCC1,"inconclusive: 25.1 µM [inhibitor, single point]",
Cc1cccc2sc(NC(=O)c3ccc(Cl)s3)nc12,"inconclusive: 28.2 µM [inhibitor, partial curve]",
COC(=O)c1ccc(Oc2ccc3nnc(C)n3n2)cc1,"inconclusive: 31.6 µM [inhibitor, single point]",
Cc1cc(C)c(C#N)c(SCS(=O)Cc2ccccc2)n1 (configuration not stated),,inactive: 6.45%
O=C(Nc1ccccc1N1CCOCC1)c1ccc(Br)o1,,inactive: 2.46%
COC(=O)c1c(NC(=O)CN(c2ccc(C)c(C)c2)S(C)(=O)=O)sc2c1CCCC2,"inconclusive: 28.2 µM [inhibitor, single point]",
O=C1CC(N2CCN(c3cccc(C(F)(F)F)c3)CC2)C(=O)N1c1ccccc1F (configuration not stated),,inactive: -10.2%
CC(C)CC(=O)NC(=S)NNC(=O)c1ccc(NC(=O)C2CCCCC2)cc1,"inconclusive: 22.4 µM [inhibitor, single point]",

SMILES,Potency,"activity change, negative = inhibition"
CC1CCN(CCn2c(=S)[nH]c3cc4c(cc3c2=O)OCO4)CC1,"inconclusive: 35.5 µM [inhibitor, single point]",
COC(=O)c1sc(NC(=S)NC(=O)c2ccccc2)nc1C,,inactive: -5.5%
CC1=NN(c2ccccc2)C(=O)/C1=C\c1ccc(Br)s1,active: 3.16 µM,
Cc1nc2ccccc2c(=O)n1/N=C/c1ccc(O)cc1O,"inconclusive: 35.5 µM [inhibitor, single point]",
COc1cc(C(=O)NC(CCSC)C(=O)OCC(=O)C(C)(C)C)cc(OC)c1OC (configuration not stated),"inconclusive: 35.5 µM [inhibitor, single point]",
Cc1ccccc1Cc1c(C)nc2c(C(=O)NCc3ccc4c(c3)OCO4)cnn2c1C,"inconclusive: 7.08 µM [inhibitor, single point]",
O=C(N/N=C/c1cccc(F)c1)c1cc(-c2ccco2)nc2ccccc12,"inconclusive: 22.4 µM [inhibitor, partial curve]",
COc1cc2cc3c(N)c(C(=O)Nc4sc(C)c(C)c4C#N)sc3nc2cc1OC,"inconclusive: 25.1 µM [inhibitor, single point]",
Cc1ccc(NC2=Nc3ccccc3N3C2=Nc2c(c(C)nn2-c2ccccc2)C3c2ccc(O)c(O)c2)cc1 (configuration not stated),active: 28.2 µM,
O=C(O)c1cc(NCc2c(F)cccc2Cl)ccc1N1CCOCC1,"inconclusive: 39.8 µM [inhibitor, single point]",
COc1ccc(/C=C/C(=O)Nc2cc(=O)n(C)c(=O)n2C)cc1,"inconclusive: 39.8 µM [inhibitor, single point]",
COc1cc2[nH]c3c(=O)n(CCN(C(C)C)C(C)C)cnc3c2cc1OC,"inconclusive: 28.2 µM [inhibitor, partial curve]",
COc1ccc(NS(=O)(=O)c2ccc(N3CCOCC3)c(NC(=O)c3cccc(F)c3)c2)cc1,"inconclusive: 39.8 µM [inhibitor, single point]",
c1coc(Cn2c(-c3ccco3)nc3ccccc32)c1,"inconclusive: 25.1 µM [inhibitor, partial curve]",
COc1ccc2nc(SCCC(=O)O)cc(C)c2c1,"inconclusive: 39.8 µM [inhibitor, single point]",
Cn1c(SCc2ccc(Br)cc2)nnc1-c1ccccn1,,inactive: 3.31%
Cc1nn(Cc2ccc(Cl)c(Cl)c2)c(C)c1NC(=O)c1cc(CC(C)C)on1,,inactive: -1.63%
Cn1c(-c2ccco2)n[nH]c1=S,"inconclusive: 31.6 µM [inhibitor, single point]",
COc1cccc(CN2CCC(C(=O)N3CCN(c4ccccc4F)CC3)CC2)c1,"inconclusive: 39.8 µM [inhibitor, single point]",
COc1ccc(-c2cc(C(=O)OC3CCOC3=O)c3ccccc3n2)cc1 (configuration not stated),"inconclusive: 35.5 µM [inhibitor, partial curve]",
O=C(O)/C=C/C(=O)Nc1ccc(O)cc1,,inactive: -3.32%
CCc1nc(N2CCN(C(=O)c3ccccc3)CC2)c(C#N)c2c1COC(C)(C)C2,"inconclusive: 28.2 µM [inhibitor, partial curve]",
CCOC(=O)COc1nc(C)cc(C(F)(F)F)c1C#N,"inconclusive: 25.1 µM [inhibitor, partial curve]",
COc1cc(C(=O)NC(=S)NNC(=O)c2ccc3c(c2)OCO3)cc(OC)c1OC,"inconclusive: 39.8 µM [inhibitor, single point]",

SMILES,Potency,"activity change, negative = inhibition"
CC1=C(C(N)=O)C(c2ccccc2)n2nc(-c3cccs3)nc2N1 (configuration not stated),"inconclusive: 35.5 µM [inhibitor, single point]",
CC(C)=CCC1=C(OCC(=O)O)C(=O)c2ccccc2C1=O,active: 14.1 µM,
O=Cc1ccc2noc(-c3ccc(F)cc3)c2c1,"inconclusive: 25.1 µM [inhibitor, partial curve]",
CC(=O)O/N=C(/C)c1ncc(C(F)(F)F)cc1N1CCOCC1,"inconclusive: 25.1 µM [inhibitor, partial curve]",
O=C(Nc1ccccc1Br)C(=O)N1CCCC1,,inactive: 6.25%
O=S(=O)(c1ccccc1)N1CCN(c2ccnc3cc(Cl)ccc23)CC1,"inconclusive: 31.6 µM [inhibitor, single point]",
CC1=C(C(=O)OCC2CCCO2)C(c2cccc(C(F)(F)F)c2)C2=C(CC(c3ccco3)CC2=O)N1 (configuration not stated),"inconclusive: 31.6 µM [inhibitor, partial curve]",
O=C(Nc1cccc([N+](=O)[O-])c1)c1ccc(-c2ccccc2)cc1,,inactive: 4.93%
O=c1c2ccccc2nc2n1CCCCN2,"inconclusive: 28.2 µM [inhibitor, partial curve]",
O=C(Oc1nsnc1N1CCOCC1)c1ccccc1,,inactive: -2.6%
C/C=C/C(=O)OCC(=O)Nc1ccc(SC(F)F)cc1,,inactive: 1.11%
Cc1ccccc1N1C(=O)c2ccccc2NC1c1ccncc1 (configuration not stated),"inconclusive: 28.2 µM [inhibitor, partial curve]",
CC(C)c1onc(C(=O)N2CCN(Cc3ccccc3)CC2)c1[N+](=O)[O-],,inactive: -0.172%
Nc1ncn([C@H]2O[C@@H](CO)[C@@H](O)[C@@H]2O)c(=O)n1,,inactive: -4.25% [at 25.5 µM]
COc1cccc(-c2cc(C(=O)N3C(C)CCCC3C)no2)c1 (configuration not stated),,inactive: -10.4%
O=C(COC(=O)/C=C/c1ccc2c(c1)OCO2)Nc1ccccc1,"inconclusive: 28.2 µM [inhibitor, partial curve]",
O=C(COC(=O)c1cccc2ccccc12)NCC1CCCO1 (configuration not stated),"inconclusive: 28.2 µM [inhibitor, partial curve]",
COCCCN1CN(S(=O)(=O)c2cccs2)c2nc3ccccc3nc21,"inconclusive: 35.5 µM [inhibitor, single point]",
CCOC(=O)/C(=C/c1c2ccccc2cc2ccccc12)NC(=O)c1ccccc1,"inconclusive: 39.8 µM [inhibitor, single point]",
Cc1cc(=O)oc2cc(O[C@@H]3O[C@H](C(=O)O)[C@@H](O)[C@H](O)[C@H]3O)ccc12,"inconclusive: 35.5 µM [inhibitor, partial curve]",
N#CC1=C(O)C(c2ccccc2)n2c1nc(=O)c1ccccc12 (configuration not stated),"inconclusive: 35.5 µM [inhibitor, single point]",
Cc1ccccc1COC[C@H](CC(C)C)N1CCN(C(=O)c2cccc(C(F)(F)F)c2)CCC1=O,,inactive: 2.54%
CCOc1ccc(NC(=S)N(CCCN2CCOCC2)Cc2cn(C)c3ccccc23)cc1,,inactive: 5.25%
CC(=O)c1ccccc1NC(=O)Cn1c(=O)cnc2ccccc21,"inconclusive: 39.8 µM [inhibitor, single point]",
